The record followed here is patent US12551573B2, “Compositions and methods for the targeting of PCSK9” (Scribe Therapeutics Inc., priority 2022, dated 2026).

Sequences and labels used below:
B1: DOMAIN_19947 (protein, listed as Pan paniscus)
chain: MLMMFRDVAVDFSQEEWECLDLEQRGLYRDVMLENYSNMVSLGLCIYQPEAFSLLEKGKEPWKILRDETRGPCPDMQSRCQ
B2: DOMAIN_19889 (protein)
chain: SKAPVTFGDLAIYFSQEEWEWLSPIQKDLYEDVMLENYQNLVSLGLSFRRPNVIALLEKGKAPWMVEPVKRRRGLDSGSKC
modifications: Vicugna pacos
B3: DOMAIN_20147 (protein, listed as Odocoileus virginianus)
chain: SKAPVTFGDLAIYFSQEEWEWLSPIQKDLYEDVMLENYQNLVSLGLCFRRPNVITLLEKGKAPWMVDPVKRRRGLDLGSKG
B4: DOMAIN_20436 (protein, listed as Sus scrofa)
chain: LVFEDVAINFTPEEWALLDPAQRRLYRDVMLETFKNLAFVGSCLHVKTSGSSAQRDILENVLCSEEKIVRFKRNDSKSVLG
B5: DOMAIN_20371 (protein)
chain: WKELLSFEDVAMYFTREEWNRLDWAQKDLYRDVMLENYRNMILLGFQFPKPEVICLLEQWEEPWILDLPRAGTRKASSSAC
modifications: Ursus arctos
B6: DOMAIN_19993 (protein, listed as Tursiops truncatus)
chain: FQVLVSFEEVAVLLSQEEWGHLGPAQKRLYRDVMLETYGNLVSLGLQGSKPDVISKLEQGEEPWTPHSPRIEGSWIRRRRP
B7: DOMAIN_19990 (protein, listed as Panthera pardus)
chain: PQEPVTFEDVAVYFTQNQWASLDPMQRALYREVMLENYTNMASLAFPFPKPVLVSHLERGEAPWGPDPWEAEVLRGICPGG
B8: DOMAIN_19891 (protein, listed as Zalophus californianus)
chain: ARASLSFEDVAVGFSWEEWQLLAPSQKDLYRDVMLENYRNLVSVGYQASKPDSVFQLEQGEPPWMVEGAAQSQTCQGYPAT
B9: DOMAIN_20249 (protein)
chain: SQHLVTFEDVAVNFTQEEWTLLDQTQRDLYRDVMLENYQNLMALAGSESCKPHVNSPLEGAEELRTRARRILQSEFMAESD
modifications: Vicugna pacos
B10: DOMAIN_20089 (protein, listed as Panthera pardus)
chain: PQEPVTFEDVAVLFTPEEWMFLDSAQRSLYRDVMLENYRNVASVGDQLGKFSSFSHLEQGEEWWPTERRVFPGSCPEPSLP
B11: DOMAIN_20332 (protein, listed as Callithrix jacchus)
chain: EQEPVTFKDVAVDFTQEEWGQLDLVQRTLYRDVMLETYGHLLSVGNQTAKPEVISLLEQGEEPWSVEQTCPQRACPEWMRN
B12: DOMAIN_20359 (protein, listed as Pteropus vampyrus)
chain: SKASVTFADLAVYFSQEEWEGLSPIQKDLYEDVMLETYQNLVSVGLSCRRPSVITLLEKGKAPWTVEPARQRRGPDSGAKC
B13: DOMAIN_20250 (protein, listed as Phascolarctos cinereus)
chain: PQELVTFEDVAVYLSKEEWGLLDPAQRRLYRDVMLENYGNVASLGLPVSKPDLISQLERTDLPLVPRLPQTEIEDLFDEKL
B14: DOMAIN_20171 (protein, listed as Trichechus manatus)
chain: ARESVVFSDVSIAFSQEEWAHLDLEQKDLYRDVMLENYSNLVSLAGCFVSKPDVISLLEQGKEPWKIVRKGRRRYPDLETR
B15: DOMAIN_19883 (protein, listed as Zalophus californianus)
chain: PQESVTFKDIAVDFTQEEWALLDTSQRKLYRDVMLENISHLVSVGYHLCKSDVVSQLEQGVELWREGRGFPQGPNPDRKSG
B16: DOMAIN_19886 (protein, listed as Panthera pardus)
chain: AQGSVVFSDVSVDFSQEEWECLDSGQRDLYRDVMLENYSNLLSMGFYIPKPPVISLLEQGKEPWMVGRELTKGLCSDLESM
B17: DOMAIN_20095 (protein, listed as Phascolarctos cinereus)
chain: FQVSVTFQDVAVDFSRDEWKRLDDAQKALYRDVMLENYENLVSLGLPVSKLDVISLLERREAPRRAKERVPRDLPPDSISQ
B18: DOMAIN_20115 (protein, listed as Physeter macrocephalus)
chain: HQEVVTFEDVAVYFTQTEWAGLSPAQRALYRSVMLEIYGNLTSLGYPVPKPALVSLLERGELPWGLETRDDPPAQGTKDIC
B19: DOMAIN_20134 (protein, listed as Acinonyx jubatus)
chain: FQDFVSFNDVSVNFTEEEWRELDPVQRVLYRDVMLENYRNLVSLGFPFSKPDIISQLEQAVNPWMQEGEVLRGSCTHLETR
B20: DOMAIN_19921 (protein, listed as Callorhinus ursinus)
chain: SHGPLSFEDVAIAFTKEEWQQLDPAQRTLYRDVMLENFSHLVSLGHPVSKPDIISKLEQGEEPWIIKRHISDWICPERETR
B21: DOMAIN_20287 (protein)
chain: LKGLVTFEDVAVEFTQEEWALLDPAQRTLYRDVMLENFRNLASLGDQVDKPGLIAQLEQEDKVMTEERGILPGTCPDVENP
modifications: Cercocebus atys
B22: DOMAIN_20208 (protein, listed as Pteropus vampyrus)
chain: SQEPVSFLDVAVDFTQEEWQQLDPVQRTTYRDVMLENYSHLVALGYDSAKPNVIVKLEQGEEPWVAEGDLPCRSRPEEVWQ
B23: DOMAIN_20345 (protein)
chain: MVSFEDVAVLLSQEEWDCLIPAQRGLYRDVMLETYGNLVSLGLQASKPDVISRLEQGDEPWTTHTLRTQGSWSWRHKREGY
modifications: Cebus imitator
B24: DOMAIN_20023 (protein, listed as Physeter macrocephalus)
chain: KSAAVSFSDVAVYFSLEEWGCLRPAQRALYRDVMRETYGHLGALGFPGPKPALISWMEQESEAWSPAAQDPEEGESLGGAL
B25: DOMAIN_20318 (protein, listed as Callithrix jacchus)
chain: KPGAVSFADVAVYFSPEEWGCLRPAQRALYRDVMRETYGHLGALGFPGPKPALISWMEQESEAWSSAAQDPENGESLGGAR
B26: DOMAIN_20352 (protein)
chain: AQETVTFKDVAVDFTQEEWGQLDPVQRTLYRDVMLETYGHLLSVGNQIAKPEVISLLEQGEEPWSMERVYPPQRTCPEWMR
modifications: Vicugna pacos
B27: DOMAIN_20012 (protein, listed as Leptonychotes weddellii)
chain: AQESVVFSDVSIDFSQEEWECLNDDQRDLYRDVMLENYSHLVSMAGHSVSKPDVISVLEQGKEPWLVDRELTREQWPVLES
B28: DOMAIN_19944 (protein, listed as Zalophus californianus)
chain: SQEPVTFEDVAVYFTQNQWASLDPMQRALYLEVMLENYANITSLAALPFPKPDLILQLEQGGAPWGLDPWTPLEGEALGGV
B29: DOMAIN_20381 (protein, listed as Saimiri boliviensis)
chain: ALRSVMFSDISIDFSPEEWEYLDLEQKNLYRDVMLENYSNLVSLGCFISKPVVISLLEQGKEPWKVVRKRRQYPDLETKYE
B30: DOMAIN_20398 (protein, listed as Physeter macrocephalus)
chain: SQESVSFEDVAVYFTQNQWASLDSAQRTLYRKVMLENYANVTSLAAFPFPKPDLILQLEQGEAPGGLDPWTPIRREVRGVC
B31: DOMAIN_19967 (protein, listed as Tursiops truncatus)
chain: QAEVTFEDVAVLLSREEWGRLGPVQKGLYRDVMLETYRNLVSLGAGPAGPKPEVITQLERGDEPWVPDVQGRERPTIDGSA
B32: DOMAIN_235 (protein, listed as Pan paniscus)
chain: MDSVAFEDVAVNFTHEEWALLSPSQKNLYRDVMRETIRNLNCIGMKWENQNIDDQYQNLRRNPRCDVVERFGKSKDGSQCG
B33: DOMAIN_313 (protein, listed as Pan paniscus)
chain: MGPLTIRDVTVEFSLEEWHCLDTAQQNLYRDVMLENYRNLVFLGIAVSKPDLITCLEQGKEPCNMKRHEMVAKPPVMCSHI
B34: DOMAIN_302 (protein, listed as Pan paniscus)
chain: MGPLTFTDVAIEFSLEEWQCLDTAQQNLYRNVMLENYRNLVFLGIAVSKPDLITCLEKEKEPCKMKRHEMVDEPPDGVSLL
B35: DOMAIN_226 (protein, listed as Pan paniscus)
chain: MDSVAFEDVAVSFTQEEWALLDPSQKNLYRDVMQETFKNLTSVGKTWKVQNIEDEYKNPRRNLRRSFTLVAQAGVRQDLGS

For the first assay, the system named is HBEGF locus. The format is cell-based, human. Particulars: high-throughput screen of dXR repression of the HBEGF gene; abundance of each domain in the library before vs after diphtheria toxin selection; listed domains met p-value <0.01 and log2(fold change) >2.
Turning to B1, the “Log2 (fold change)” value is recorded as 2.2608.

For the molecule B2, the “Log2 (fold change)” value is given as 3.1963. In the case of B3, the “Log2 (fold change)” value was found to be 3.7467. B4: the “Log2 (fold change)” value turned out to be 2.724. Same read-out and setting: the figure for B5 is 2.8418; for B6 it is 3.4227. Consider B7, for which the “Log2 (fold change)” value is 3.5329. With B8, the “Log2 (fold change)” value is given as 3.2135.

Regarding B9, the “Log2 (fold change)” value was 2.7041. For B10, the “Log2 (fold change)” value was determined as 4.2275.

In the case of B11, the “Log2 (fold change)” value came out at 3.2855. With B12, the “Log2 (fold change)” value is given as 3.9594. Still for that read-out and setting: for B13 the value was 3.5525. The same measure, in the same setting: for B14 the value was 3.951; for B15, 3.5504. Still for that read-out and setting: for B16 the value was 2.8642. In the case of B17, the “Log2 (fold change)” value is 3.7141.

As for B18, the “Log2 (fold change)” value worked out at 3.1154. On to B19, for which the “Log2 (fold change)” value is 3.2457.

Turning to B20, the “Log2 (fold change)” value is on record as 2.0083. Still for that read-out and setting: for B21 the value was 3.4486; for B22, 2.4805. The same measure, in the same setting: the figure for B23 is 3.8132; for B24 it is 3.6893.

As to B25, the “Log2 (fold change)” value was 3.5311. Still for that read-out and setting: for B26 the value was 2.9839; for B27, 3.8253; for B28, 3.8559. Consider B29, for which the “Log2 (fold change)” value worked out at 2.0412. B30: the “Log2 (fold change)” value is recorded as 3.1266. Same read-out and setting: the figure for B31 is 2.9548.

Staying with this assay, now noted: high-throughput screen of dXR repression of the HBEGF gene; change in abundance of each domain in the library before and after diphtheria toxin selection.
As for B32, the “Log2 (fold change)” value amounted to 2.9615. The same measure, in the same setting: for B33 the value was 2.4558; for B34, 2.5092. As for B35, the “Log2 (fold change)” value was determined as 3.0188.
